Paper PMC7501296, “Rapid and direct control of target protein levels with VHL-recruiting dTAG molecules” (Nature Communications, 2020)
Several values for one entry are separate records, joined by “and”; a condition that tells them apart may be missing. Identical values can stand only once. This continues a long series; more values of the same kind are listed elsewhere.

How the values were obtained:
[1] = test system: PATU-8902 FKBP12^F36V-KRAS^G12V; KRAS^-/- clone; experiment: Antiproliferation, PATU-8902 FKBP12F36V-KRASG12V; KRAS-/- clone, 3D-spheroid (CellTiter-Glo); type: cell-based; details: 120 h
Protocol: (§1) Cell viability was assayed in 2D-adherent or ultra-low adherent 3D-spheroids using CellTiter-Glo (Promega)[6],[15]. Luminescence was measured on an Envision 2104 plate reader (PerkinElmer) and Fluostar Omega Reader (BMG Labtech) and data was analyzed using GraphPad PRISM v8. Synergy assessments were performed using CellTiter-Glo (Promega) with the following modifications to the protocol described in the ref. [34]. In brief, EWS502 cells were plated at 1000 cells per well in 50 µL of appropriate media in 384-well white culture plates (Corning) allowed to adhere overnight, and 100 nL of compounds were added using a Janus Workstation pin tool (PerkinElmer) for 72 h. Cell viability was measured by addition of 10 µL of CellTiter-glo (Promega), followed by incubation for 15 minutes at room temperature. Luminescence was measured on an Envision 2104 plate reader (PerkinElmer) and data was analyzed using GraphPad PRISM v8.

[2] = test system: PATU-8902 LACZ-FKBP12^F36V clone; experiment: Antiproliferation, PATU-8902 LACZ-FKBP12F36V clone, 2D-monolayer (CellTiter-Glo); type: cell-based
Protocol: as §1

Structure (SMILES): CC[C@H](C(=O)N1CCCC[C@H]1C(=O)O[C@H](CCc1ccc(OC)c(OC)c1)c1ccccc1OCC(=O)NCCCCCCC(=O)N[C@H](C(=O)N1C[C@H](O)C[C@H]1C(=O)N[C@@H](C)c1ccc(-c2scnc2C)cc1)C(C)(C)C)c1cc(OC)c(OC)c(OC)c1 [dTAG^V-1]
- DMSO-normalized antiproliferation ([1]; log10[compound] (M) -8.19897, single replicates): 30.0314 and 28.6949 and 32.4036 and 30.2152
- DMSO-normalized antiproliferation ([1]; log10[compound] (M) -8.69897, single replicates): 52.8515 and 46.5534 and 59.2387 and 51.9382
- DMSO-normalized antiproliferation ([1]; log10[compound] (M) -9.19897, single replicates): 73.4831 and 72.2079 and 84.3419 and 73.5221
- DMSO-normalized antiproliferation ([1]; log10[compound] (M) -9.69897, single replicates): 99.984 and 76.802 and 106.171 and 79.0127
- DMSO-normalized antiproliferation ([1]; log10[compound] (M) -10.199, single replicates): 80.9506 and 84.0022 and 96.4313 and 99.1933
- DMSO-normalized antiproliferation ([2]; log10[compound] (M) -4.69897): 85.1577 and 72.2366 and 82.9443 and 78.0836
- DMSO-normalized antiproliferation ([2]; log10[compound] (M) -5.19897): 77.9567 and 74.0308 and 77.4261 and 81.3624
- DMSO-normalized antiproliferation ([2]; log10[compound] (M) -5.69897): 92.4692 and 73.6669 and 88.5961 and 75.9217
- DMSO-normalized antiproliferation ([2]; log10[compound] (M) -6.19897): 97.7261 and 86.0485 and 91.3233 and 76.0541
- DMSO-normalized antiproliferation ([2]; log10[compound] (M) -9.19897): 90.8848 and 75.3731 and 80.2124 and 77.2292
